According to the supplement of paper PMC10369915:
The other results are listed elsewhere or left out. Rule as the data show it: active = 3.2 or more and inactive = the rest. The signal is at background level for most entries.

B1: PCDHGA1_Y895_V894G_YF (peptide)
chain: FRQNGYIPGSN
B2: PDGFRA_Y574_H570R (peptide)
chain: GREYIYVDPMQ
B3: PDE6C_Y266_YF (peptide)
chain: FHKALYTVRSF
B4: PCDHGA1_Y890_YF (peptide)
chain: QHVPDYRQNVF
B5: PDGFRB_Y562_R561C (peptide)
chain: QKKPCYEIRWK
B6: PDGFRA_Y849_Y849S (peptide)
chain: MHDSNSVSKGS
B7: PCDHGA1_Y890_V894G_YF (peptide)
chain: QHVPDYRQNGF
B8: PDE4DIP_Y45_I49T (peptide)
chain: SREDIYKRNTE
B9: PDGFRA_Y849_D846Y_YF (peptide)
chain: MHFSNYVSKGS
B10: PDE6A_Y275 (peptide)
chain: LNCDRYSVGLL
B11: PDGFRA_Y574_H570R_YF (peptide)
chain: GREFIYVDPMQ
B12: PDGFRA_Y582_L580M (peptide)
chain: PMQMPYDSRWE
B13: PDGFRA_Y574_YF (peptide)
chain: GHEFIYVDPMQ
B14: PDE6B_Y212 (peptide)
chain: DVFLKYLNFAT
B15: PDGFRA_Y849 (peptide)
chain: MHDSNYVSKGS
B16: PDGFRA_Y768 (peptide)
chain: DRPASYKKKSM
B17: PCDHGA5_Y753 (peptide)
chain: AFLQTYSHEVS
B18: PDE6B_Y556_YF (peptide)
chain: FRRITYHNWRH
B19: PCDHGA5_Y753_S754A (peptide)
chain: AFLQTYAHEVS

Each binder was assayed against SHP2 C-SH2 domain E139D (assay: enrichment score (SH2-bound / input frequency) (ratio); bacterial display of known human phosphotyrosine sites (pTyr-Var adds point mutants) read by sequencing; higher = stronger binding; tyrosines were phosphorylated by kinases first). Settings: peptide library: pTyr-Var.
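Also: displayed peptides selected on beads carrying the immobilized SH2 domain, with library peptides lacking any tyrosine serving as negative controls.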

Enrichment score, inactive:
B1 0.735
B2 1.49
B3 0.937
B4 0.922
B5 2.76
B6 0.578
B7 0.713
B8 0.783
B9 0.979
B10 0.839
B11 0.917
B12 0.812
B13 0.96
B14 2.13
B15 0.506
B16 0.506
B17 1.3
B18 0.343
B19 1.02

The binders below were run against SHP2 C-SH2 domain wild-type in the same assay as above. Settings: peptide library: pTyr-Var.

Enrichment score, inactive:
B1 0.642
B2 1.06
B3 0.774
B4 0.802
B5 2.64
B6 0.616
B7 0.679
B8 0.785
B9 0.7
B10 0.879
B11 0.55
B12 0.579
B13 0.896
B14 1.94
B15 0.382
B16 0.426
B17 1.08
B18 0.214
B19 0.871

These binders were tested against SHP2 N-SH2 domain L43F in the same assay as above. Settings: peptide library: pTyr-Var.

Enrichment score, inactive:
B1 0.676
B2 1.08
B3 0.634
B4 0.849
B5 2.89
B6 0.557
B7 0.669
B8 0.766
B9 0.798
B10 0.807
B11 1.11
B12 0.817
B13 0.939
B14 2.23
B15 0.47
B16 0.303
B18 0.438
B19 2.43

Enrichment score, active:
B17 3.89

What follows are binders tested against SHP2 N-SH2 domain T42A in the same assay as above. Settings: peptide library: pTyr-Var.

Enrichment score, active:
B14 4.59

Enrichment score, inactive:
B1 0.593
B2 1.1
B3 0.632
B4 0.689
B5 2.62
B6 0.573
B7 0.618
B8 0.702
B9 0.833
B10 0.677
B11 0.814
B12 0.738
B13 0.846
B15 0.469
B16 0.327
B17 1.16
B18 0.175
B19 0.923

Each binder was assayed against SHP2 N-SH2 domain T52S in the same assay as above. Settings: peptide library: pTyr-Var.

Enrichment score, active:
B17 4.61

Enrichment score, inactive:
B1 0.664
B2 1.01
B3 0.966
B4 0.837
B5 2.08
B6 0.534
B7 0.65
B8 0.607
B9 0.782
B10 0.782
B11 0.734
B12 0.827
B13 0.883
B14 3
B15 0.419
B16 0.49
B18 0.399
B19 2.48

Each binder was assayed against SHP2 N-SH2 domain wild-type in the same assay as above. Settings: peptide library: pTyr-Var.

Enrichment score, inactive:
B1 0.697
B2 1.18
B3 0.88
B4 0.839
B5 2.68
B6 0.537
B7 0.769
B8 0.871
B9 0.887
B10 0.978
B11 0.629
B12 0.785
B13 1
B14 2.22
B15 0.401
B16 0.407
B17 1.31
B18 0.284
B19 0.917
